# The whole screen tested about 91,000 compounds, of which about 290 (0.32%) were called active. The inconclusive results got no clear call from the source; some entries with a clear call stand among them for comparison. The call rests on the fitted dose curve; in most records, active means well fitted inhibition curve with a large enough effect; inconclusive means small, poorly fitted or top-dose-only effect; inactive means no such curve, though single readings can be large or run the other way. Potencies of inconclusive entries are doubtful fits and often do not repeat.
# Target: Single-stranded DNA cytosine deaminase (Homo sapiens) (UniProt Q9GZX7)
# Assay: Primary qHTS assay for inhibitors of Activation Induced Cytidine Deaminase (AID): AID signal; further: nearly all actives have a fitted effect of over 25% in size
# Conditions: AID deamination FRET fluorescence, UDG-coupled, 4 h; series mostly up to 115 µM
# Potency means the concentration at half of the fitted maximal effect; tags describe the fitted curve by direction and shape.
# Chain of UniProt Q9GZX7 (Q9GZX7 whole entry, looked up): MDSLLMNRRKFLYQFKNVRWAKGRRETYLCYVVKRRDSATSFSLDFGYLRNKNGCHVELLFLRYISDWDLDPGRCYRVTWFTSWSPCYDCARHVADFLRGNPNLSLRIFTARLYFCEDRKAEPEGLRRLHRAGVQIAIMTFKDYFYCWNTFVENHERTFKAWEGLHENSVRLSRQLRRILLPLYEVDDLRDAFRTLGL
row,Compound,Potency
1,COc1ccc(/C=C/c2nc(C#N)c(N3CCCCCC3)o2)cc1OC,"inconclusive: 79.4 µM [inhibitor, partial curve, poor fit]"
2,O=C(O)/C=C/c1cc(Br)c(OCc2ccccc2Cl)c(Br)c1,"inconclusive: 89.1 µM [inhibitor, partial curve, poor fit]"
3,COc1ccccc1Nc1c2c(nc3ccc(NC(=O)/C=C/c4cc(OC)c(OC)c(OC)c4)cc13)CCCC2,active: 44.7 µM
4,Cc1c(Cl)cccc1-c1ccc(C=O)o1,"inconclusive: 50.1 µM [inhibitor, partial curve, poor fit]"
5,O=C(COc1cccc(Cl)c1)NC1CCCN(c2ncccn2)C1 (centres undefined),inactive
6,CCOc1ccc(-n2c(Cc3ccccc3)nnc2SCc2nc(-c3cccs3)no2)cc1,active: 31.6 µM
7,CC(C)CCC1(C)NC(=O)N(c2ccc(Br)cc2)N1 (centres undefined),inactive
8,Cc1ccc(CSc2nc3ccsc3c(=O)n2CCC(C)C)cc1,"inconclusive: 25.1 µM [inhibitor, partial curve, poor fit]"
9,O=C(NCC1CCN(Cc2ccccc2Cl)CC1)c1cc2ccc3cccnc3c2[nH]1,"inconclusive: 50.1 µM [inhibitor, partial curve, poor fit]"
10,COc1ccccc1C(=O)Nc1ccc(OCc2cc(=O)n3cccc(C)c3n2)cc1,inactive
11,CCc1ccc(NC(=O)c2ccc3c(O)c(S(=O)(=O)c4ccccc4)c(=O)[nH]c3c2)cc1,"inconclusive: 50.1 µM [inhibitor, partial curve, poor fit]"
12,CC(C)c1ccc2occ(CC(=O)Nc3cccc(C(F)(F)F)c3)c2c1,"inconclusive: 28.2 µM [inhibitor, full curve, poor fit]"
13,O=C(CSc1cccc2cccnc12)NNC(=O)C(c1ccccc1)c1ccccc1,inactive
14,COC(=O)c1ccccc1NC(=O)Cn1nc(C(F)(F)F)c2c1CCCC2,"inconclusive: 2.82 µM [inhibitor, full curve, poor fit]"
15,COc1ccc(N(C(=O)c2ccc(Cl)cc2)S(=O)(=O)c2ccc(C)cc2)cc1,"inconclusive: 89.1 µM [inhibitor, single point]"
16,CCOc1ccc(CNCc2c(C(=O)O)n(Cc3ccc(OC)cc3)c3ccccc23)cc1,inactive
17,Cc1cccc(N2CCN(C(=O)CCC(=O)NNc3nc4ccccc4c4nc(C)nn34)CC2C)c1 (centres undefined),"inconclusive: 31.6 µM [inhibitor, partial curve, poor fit]"
18,Cn1c(=O)c2c(-c3ccccc3Cl)n(Cc3ccc(Cl)cc3)cc2n(C)c1=O,"inconclusive: 89.1 µM [inhibitor, partial curve, poor fit]"
19,Cc1ccc(C)c(Nc2nc3c(S(=O)(=O)c4ccc(Br)cc4)nnn3c3ccsc23)c1,"inconclusive: 44.7 µM [inhibitor, partial curve, poor fit]"
20,[N-]=[N+]=Nc1ccc(C(=O)CSC[C@H](NC(=O)CC[C@H](N)C(=O)O)C(=O)NCC(=O)O)cc1,active: 89.1 µM

row,Compound,Potency
1,COc1ccc(Cl)cc1NC(=O)Cn1c(=O)n(CCCC(=O)NCCc2ccc(OC)c(OC)c2)c(=O)c2ccccc21,"inconclusive: 100 µM [inhibitor, partial curve, poor fit]"
2,CCCOc1ccc(CNC(=O)Cn2cc3c(n2)-c2c(oc(C(=O)N4CCOCC4)c2C)CC3)cc1,"inconclusive: 89.1 µM [inhibitor, single point]"
3,COc1ccc(-c2nnc(Nc3ccc(OC)c(C(N)=O)c3)c3ccccc23)cc1,"inconclusive: 50.1 µM [inhibitor, partial curve, poor fit]"
4,Cc1cc2[nH]c(C(=O)O)cc2c2ccccc12,inactive
5,CN(C)S(=O)(=O)N(CC(=O)NCCSCc1cccc(Cl)c1)c1ccccc1,"inconclusive: 100 µM [inhibitor, single point]"
6,CCOC(=O)c1ccc(N2C(=O)c3n[nH]c(-c4cccs4)c3C2c2cccc(OC)c2)cc1 (centres undefined),"inconclusive: 7.94 µM [inhibitor, full curve, poor fit]"
7,CCn1c(C)c(C)c2cc(C(=O)N3CCN(c4cccc(C)c4C)CC3)ccc21,"inconclusive: 50.1 µM [inhibitor, partial curve]"
8,O=C(CSc1cn(CCNC(=O)c2ccccc2F)c2ccccc12)Nc1ccc(F)cc1,inactive
9,COC(=O)c1c(SCC(=O)Nc2ccccc2C(F)(F)F)[nH]c2ccc(Cl)cc2c1=O,"inconclusive: 70.8 µM [inhibitor, partial curve]"
10,CCOC(=O)c1ccc(N2C(=O)c3n[nH]c(-c4cccs4)c3C2c2cccc(O)c2)cc1 (centres undefined),"inconclusive: 89.1 µM [inhibitor, partial curve, poor fit]"
11,CC(=O)c1ccc(NC(=O)CSc2nnc3c(n2)[nH]c2ccccc23)cc1,"inconclusive: 50.1 µM [inhibitor, partial curve, poor fit]"
12,CC1CCN(S(=O)(=O)c2ccc3nc(Nc4cccc(F)c4)ccc3c2)CC1,"inconclusive: 20 µM [inhibitor, single point]"
13,Cc1ccc(-c2cnc(C3CC3)o2)cc1S(=O)(=O)Nc1ccc(F)cc1Cl,"inconclusive: 50.1 µM [inhibitor, partial curve, poor fit]"
14,CCOc1ccccc1Oc1coc2cc(OC(=O)c3ccccc3)ccc2c1=O,inactive
15,Cc1cccc(C)c1NC(=O)c1cc(S(=O)(=O)N2CCCc3ccccc32)ccc1F,inactive
16,COc1cccc(C(=O)NCCc2sc(-c3cccc(C)c3)nc2C)c1,"inconclusive: 70.8 µM [inhibitor, single point]"
17,O=C(C1CC1)N(Cc1ccc2c(c1)CN(S(=O)(=O)c1cc(F)cc(F)c1)CCO2)c1ccccc1,inactive
18,CCOC(=O)c1ccc(NC(=O)c2sc3nc4n(c(=O)c3c2C)CCC4)cc1,"inconclusive: 56.2 µM [inhibitor, partial curve, poor fit]"
19,Cc1ccc(NC(=O)C2CCN(C(=O)c3cnn(-c4ccccc4)c3-n3cccc3)CC2)cc1Cl,"inconclusive: 28.2 µM [inhibitor, full curve, poor fit]"

# — PubChem BioAssay AID1347428 (National Center for Advancing Translational Sciences (NCATS), 2020)
